The text below walks through data of paper PMC12756210.

The chains behind the UniProt entries cited, without tags or fusion partners.
UniProt P05804: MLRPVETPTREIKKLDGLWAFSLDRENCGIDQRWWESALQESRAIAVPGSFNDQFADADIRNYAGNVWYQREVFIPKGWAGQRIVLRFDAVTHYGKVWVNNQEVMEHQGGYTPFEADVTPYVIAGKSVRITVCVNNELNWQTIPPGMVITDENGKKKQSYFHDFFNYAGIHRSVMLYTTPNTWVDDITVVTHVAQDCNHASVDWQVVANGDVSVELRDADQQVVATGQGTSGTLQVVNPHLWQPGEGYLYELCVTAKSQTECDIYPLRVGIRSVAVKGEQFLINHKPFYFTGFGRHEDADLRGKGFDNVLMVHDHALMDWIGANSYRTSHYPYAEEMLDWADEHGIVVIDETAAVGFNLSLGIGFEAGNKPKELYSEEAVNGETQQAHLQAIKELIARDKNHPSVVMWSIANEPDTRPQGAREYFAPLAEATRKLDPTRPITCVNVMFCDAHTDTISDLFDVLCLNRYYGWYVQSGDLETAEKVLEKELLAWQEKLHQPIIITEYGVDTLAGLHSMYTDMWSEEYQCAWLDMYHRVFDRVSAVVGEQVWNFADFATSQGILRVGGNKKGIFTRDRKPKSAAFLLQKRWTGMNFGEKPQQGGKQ

One assay deals with GUS-cYFP (UniProt P05804). Nature of the assay: split reporter; BiFC: nYFP and cYFP fusions transiently co-expressed in N. benthamiana leaves with CBL1-OFP as plasma membrane marker; YFP fluorescence read 48 h after transfection.
A further assay concerns the target T1, ZIP2-cYFP (Arabidopsis) (UniProt Q9LTH9).
T1 sequence: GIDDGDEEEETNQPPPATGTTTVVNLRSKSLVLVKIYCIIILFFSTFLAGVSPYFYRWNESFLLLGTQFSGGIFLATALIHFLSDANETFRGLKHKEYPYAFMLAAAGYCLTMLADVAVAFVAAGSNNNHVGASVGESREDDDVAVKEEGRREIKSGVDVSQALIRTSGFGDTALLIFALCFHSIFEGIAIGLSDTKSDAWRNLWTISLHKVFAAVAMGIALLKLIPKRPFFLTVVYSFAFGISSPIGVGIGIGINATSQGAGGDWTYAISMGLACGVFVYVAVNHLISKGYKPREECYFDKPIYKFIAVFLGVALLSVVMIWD
Described as above.

For assay [1], the target named is T2, GST-ZIP2-Loop (Arabidopsis) (UniProt Q9LTH9).
T2 sequence: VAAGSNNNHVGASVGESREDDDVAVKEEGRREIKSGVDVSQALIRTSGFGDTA
Nature of the assay: pull-down; GST-ZIP2-Loop (or GST) on glutathione beads incubated with His-CIPK3/9/23/26; eluate blotted with anti-His antibody; both purified.

Another assay deals with GUS-cLUC (UniProt P05804). Kind of assay: split reporter; split luciferase complementation imaging (LCI): nLUC and cLUC fusions co-infiltrated by Agrobacterium GV3101 into N. benthamiana leaves, expressed 48 h, signal read by CCD.
Another assay deals with T3, ZIP2-cLUC (Arabidopsis) (UniProt Q9LTH9).
T3 sequence: T1 sequence
The description is as above.

The target of a further assay is T4, ZIP2-GFP (Arabidopsis) (UniProt Q9LTH9).
T4 sequence: T1 sequence
Nature of the assay: co-IP; total protein of 10-day-old transgenic Arabidopsis seedlings in IP buffer (50 mM Tris HCl pH 7.6, 150 mM NaCl, 0.5% NP-40); anti-GFP agarose beads; blots with anti-FLAG and anti-GFP antibodies.

Another assay has as its target T5, ZIP5-cYFP (Arabidopsis) (UniProt O23039).
T5 sequence: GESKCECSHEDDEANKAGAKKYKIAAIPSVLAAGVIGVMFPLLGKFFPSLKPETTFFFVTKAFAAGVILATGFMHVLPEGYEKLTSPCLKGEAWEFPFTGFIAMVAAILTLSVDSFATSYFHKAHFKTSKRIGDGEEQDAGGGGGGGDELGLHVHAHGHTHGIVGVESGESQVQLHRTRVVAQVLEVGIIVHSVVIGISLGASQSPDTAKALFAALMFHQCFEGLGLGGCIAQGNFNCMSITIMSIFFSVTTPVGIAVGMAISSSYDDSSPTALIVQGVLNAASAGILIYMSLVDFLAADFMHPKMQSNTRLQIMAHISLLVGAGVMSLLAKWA
Nature of the assay: split reporter; BiFC: nYFP and cYFP fusions transiently co-expressed in N. benthamiana leaves with CBL1-OFP as plasma membrane marker; YFP fluorescence read 48 h after transfection.

No constants are given. Whether binding was seen depends on the method and setting. For part of these data: In cells and extracts the contact can be indirect. Some entries that bind do so weakly or less than the wild type. Sequences can lack the tags named with a protein.

B1: CIPK3-nYFP (protein, UniProt Q2V452 1-441)
chain: MNRRQQVKRRVGKYEVGRTIGEGTFAKVKFARNSETGEPVALKILDKEKVLKHKMAEQIRREIATMKLIKHPNVVQLYEVMASKTKIFIILEYVTGGELFDKIVNDGRMKEDEARRYFQQLIHAVDYCHSRGVYHRDLKPENLLLDSYGNLKISDFGLSALSQQVRDDGLLHTSCGTPNYVAPEVLNDRGYDGATADMWSCGVVLYVLLAGYLPFDDSNLMNLYKKISSGEFNCPPWLSLGAMKLITRILDPNPMTRVTPQEVFEDEWFKKDYKPPVFEERDDSNMDDIDAVFKDSEEHLVTEKREEQPAAINAFEIISMSRGLNLENLFDPEQEFKRETRITLRGGANEIIEKIEEAAKPLGFDVQKKNYKMRLENVKAGRKGNLNVATEIFQVAPSLHMVQVSKSKGDTLEFHKFYKKLSNSLEQVVWTNNEVKKETAK
B1: the results for the binding result with GUS-cYFP and with ZIP2-cYFP (Arabidopsis) were “no binding” and “binds”, respectively.

B2: CIPK3-His (protein, UniProt Q2V452 1-441)
chain: B1 chain
As for B2, in assay [1], the binding result is listed as “binds”.

B3: CIPK3-nLUC (protein, UniProt Q2V452 1-441)
chain: B1 chain
As to B3, the results for the binding entry in the assay with GUS-cLUC and in the assay with ZIP2-cLUC (Arabidopsis) were “no binding” and “binds”, respectively.

B4: CIPK9-His (protein, UniProt Q9MAM1 1-447)
chain: MSGSRRKATPASRTRVGNYEMGRTLGEGSFAKVKYAKNTVTGDQAAIKILDREKVFRHKMVEQLKREISTMKLIKHPNVVEIIEVMASKTKIYIVLELVNGGELFDKIAQQGRLKEDEARRYFQQLINAVDYCHSRGVYHRDLKPENLILDANGVLKVSDFGLSAFSRQVREDGLLHTACGTPNYVAPEVLSDKGYDGAAADVWSCGVILFVLMAGYLPFDEPNLMTLYKRICKAEFSCPPWFSQGAKRVIKRILEPNPITRISIAELLEDEWFKKGYKPPSFDQDDEDITIDDVDAAFSNSKECLVTEKKEKPVSMNAFELISSSSEFSLENLFEKQAQLVKKETRFTSQRSASEIMSKMEETAKPLGFNVRKDNYKIKMKGDKSGRKGQLSVATEVFEVAPSLHVVELRKTGGDTLEFHKFYKNFSSGLKDVVWNTDAAAEEQKQ
As for B4, in assay [1], the binding entry is given as “binds”.

B5: CIPK9-nLUC (protein, UniProt Q9MAM1 1-447)
chain: B4 chain
In the case of B5, the figures for the binding entry in the assay with GUS-cLUC and with ZIP2-cLUC (Arabidopsis) were “no binding” and “binds”, respectively.

B6: CIPK9-nYFP (protein, UniProt Q9MAM1 1-447)
chain: B4 chain
As for B6, the binding result with GUS-cYFP is “no binding”; with ZIP2-cYFP (Arabidopsis), “binds”.

B7: CIPK23-nYFP (protein, UniProt Q93VD3 1-482)
chain: MASRTTPSRSTPSRSTPSGSSSGGRTRVGKYELGRTLGEGTFAKVKFARNVENGDNVAIKVIDKEKVLKNKMIAQIKREISTMKLIKHPNVIRMFEVMASKTKIYFVLEFVTGGELFDKISSNGRLKEDEARKYFQQLINAVDYCHSRGVYHRDLKPENLLLDANGALKVSDFGLSALPQQVREDGLLHTTCGTPNYVAPEVINNKGYDGAKADLWSCGVILFVLMAGYLPFEDSNLTSLYKKIFKAEFTCPPWFSASAKKLIKRILDPNPATRITFAEVIENEWFKKGYKAPKFENADVSLDDVDAIFDDSGESKNLVVERREEGLKTPVTMNAFELISTSQGLNLGSLFEKQMGLVKRKTRFTSKSSANEIVTKIEAAAAPMGFDVKTNNYKMKLTGEKSGRKGQLAVATEVFQVAPSLYMVEMRKSGGDTLEFHKFYKNLTTGLKDIVWKTIDEEKEEGTDGGGTNGAMANRTIAKQST
For the molecule B7, the figures for the binding result with GUS-cYFP and with ZIP2-cYFP (Arabidopsis) were “no binding” and “binds”, respectively.

B8: CIPK23-nLUC (protein, UniProt Q93VD3 1-482)
chain: B7 chain
Regarding B8, the figures for the binding entry with GUS-cLUC and in the assay with ZIP2-cLUC (Arabidopsis) were “no binding” and “binds”, respectively.

B9: CIPK26-FLAG (protein, UniProt Q84VQ3 1-439)
chain: MNRPKVQRRVGKYEVGKTLGQGTFAKVRCAVNTETGERVALKILDKEKVLKHKMAEQIRREICTMKLINHPNVVRLYEVLASKTKIYIVLEFGTGGELFDKIVHDGRLKEENARKYFQQLINAVDYCHSRGVYHRDLKPENLLLDAQGNLKVSDFGLSALSRQVRGDGLLHTACGTPNYAAPEVLNDQGYDGATADLWSCGVILFVLLAGYLPFEDSNLMTLYKKIIAGEYHCPPWLSPGAKNLIVRILDPNPMTRITIPEVLGDAWFKKNYKPAVFEEKEEANLDDVDAVFKDSEEHHVTEKKEEQPTSMNAFELISMSRALDLGNLFEEEEGFKRETRFAAKGAANDLVQKIEEASKPLGFDIQKKNYKMRLENVTAGRKGNLRVATEIFQVSPSLHMIEVRKTKGDTLEFHKFYKKLSTSLNDVVWKSGESSGLSK
In the case of B9, in the assay with ZIP2-GFP (Arabidopsis), the binding result is “binds”.

B10: CIPK26-nYFP (protein, UniProt Q84VQ3 1-439)
chain: B9 chain
Regarding B10, the binding entry in the assay with GUS-cYFP is on record as “no binding”; with ZIP2-cYFP (Arabidopsis) it was “binds”; with ZIP5-cYFP (Arabidopsis), “no binding”.
